Experimental data: the supplement of paper PMC4604168 (melanoma cell lines)
This is one part of the list. Single values are uncertain, as repeats are few or missing.

System: 501Mel
Experiment: cell count relative to DMSO control; melanoma cells; higher = more viable cells
Details: library dose: low library concentration; 72 h
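Also: cell number obtained by counting DAPI-stained nuclei in high-throughput microscope images with image analysis software, screen run in 1,536-well plates.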

Structure (SMILES) | cell count [%]
Nc1nc(F)nc2c1ncn2[C@@H]1O[C@H](CO)[C@@H](O)[C@@H]1O [fludarabine] + c1cc(-c2cnn3cc(-c4ccc(OCCN5CCCCC5)cc4)cnc23)ccn1 [Dorsomorphin] (first compound 0.2 µM, partner dose 0.4 µM) | 4.66
CO[C@H]1C[C@@H]2CC[C@@H](C)[C@@](O)(O2)C(=O)C(=O)N2CCCC[C@H]2C(=O)O[C@H]([C@H](C)C[C@@H]2CC[C@@H](OCCO)[C@H](OC)C2)CC(=O)[C@H](C)/C=C(\C)[C@@H](O)[C@@H](OC)C(=O)[C@H](C)C[C@H](C)/C=C/C=C/C=C/1C [everolimus] + O=C(Nc1ccccc1)c1cc([N+](=O)[O-])ccc1Cl [GW9662] (first compound 0.02 µM, partner dose 2 µM) | 65.9
CC(=O)c1c(C)c2cnc(Nc3ccc(N4CCNCC4)cn3)nc2n(C2CCCC2)c1=O [palbociclib] + COC(=O)c1sccc1S(=O)(=O)Nc1ccc(Nc2ccccc2)cc1OC [GSK0660] (first compound 0.04 µM, partner dose 1 µM) | 54.6
CO[C@H]1C[C@@H]2CC[C@@H](C)[C@@](O)(O2)C(=O)C(=O)N2CCCC[C@H]2C(=O)O[C@H]([C@H](C)C[C@@H]2CC[C@@H](OCCO)[C@H](OC)C2)CC(=O)[C@H](C)/C=C(\C)[C@@H](O)[C@@H](OC)C(=O)[C@H](C)C[C@H](C)/C=C/C=C/C=C/1C [everolimus] + Cn1cc(/C=C2\C(=O)Nc3cccnc32)c2ccccc21 [GW441756] (first compound 0.02 µM, partner dose 0.4 µM) | 60
CO[C@H]1C[C@@H]2CC[C@@H](C)[C@@](O)(O2)C(=O)C(=O)N2CCCC[C@H]2C(=O)O[C@H]([C@H](C)C[C@@H]2CC[C@@H](OCCO)[C@H](OC)C2)CC(=O)[C@H](C)/C=C(\C)[C@@H](O)[C@@H](OC)C(=O)[C@H](C)C[C@H](C)/C=C/C=C/C=C/1C [everolimus] + CCN(CC)CCCCNc1ncc2cc(-c3cc(OC)cc(OC)c3)c(NC(=O)NC(C)(C)C)nc2n1 [PD173074] (first compound 0.02 µM, partner dose 0.1 µM) | 58.7
Nc1ccn([C@@H]2O[C@H](CO)[C@@H](O)C2(F)F)c(=O)n1 [gemcitabine] + O=C1NC(=O)/C(=C/c2ccc(-c3ccc(F)cc3O)o2)S1 [AS252424] (first compound 0.0004 µM, partner dose 1 µM) | 84.6
Nc1ccn([C@@H]2O[C@H](CO)[C@@H](O)C2(F)F)c(=O)n1 [gemcitabine] + Oc1nc(-c2ccc(C(F)(F)F)cc2)nc2c1CSCC2 [XAV939] (first compound 0.0004 µM, partner dose 2 µM) | 104
Nc1ccn([C@@H]2O[C@H](CO)[C@@H](O)C2(F)F)c(=O)n1 [gemcitabine] + O=S(=O)(c1ccccc1)N(CC(F)(F)F)c1ccc(C(O)(C(F)(F)F)C(F)(F)F)cc1 [T0901317] (first compound 0.0004 µM, partner dose 1.4 µM) | 79.6
Nc1nc(F)nc2c1ncn2[C@@H]1O[C@H](CO)[C@@H](O)[C@@H]1O [fludarabine] + CCc1ccc(CCOc2ccc(CC3SC(=O)NC3=O)cc2)nc1 [pioglitazone] (first compound 0.2 µM, partner dose 2 µM) | 7.36
CC(=O)c1c(C)c2cnc(Nc3ccc(N4CCNCC4)cn3)nc2n(C2CCCC2)c1=O [palbociclib] + Cc1cc([N+](=O)[O-])ccc1NS(=O)(=O)c1cc(Cl)ccc1Cl [FH535] (first compound 0.04 µM, partner dose 1 µM) | 58.2
CC(=O)O[C@@]12CO[C@@H]1C[C@H](O)[C@@]1(C)C(=O)[C@H](O)C3=C(C)[C@@H](OC(=O)[C@H](O)[C@@H](NC(=O)OC(C)(C)C)c4ccccc4)C[C@@](O)([C@@H](OC(=O)c4ccccc4)[C@H]21)C3(C)C [Docetaxel] + N#Cc1c(O)c2c(-c3ccc(-c4ccccc4O)cc3)csc2[nH]c1=O [A769662] (first compound 0.0001 µM, partner dose 2 µM) | 68.4
Nc1ncn([C@H]2C[C@H](O)[C@@H](CO)O2)c(=O)n1 [decitabine] + COC(=O)c1sccc1S(=O)(=O)Nc1ccc(Nc2ccccc2)cc1OC [GSK0660] (first compound 0.1 µM, partner dose 1 µM) | 98
CO[C@H]1C[C@@H]2CC[C@@H](C)[C@@](O)(O2)C(=O)C(=O)N2CCCC[C@H]2C(=O)O[C@H]([C@H](C)C[C@@H]2CC[C@@H](OCCO)[C@H](OC)C2)CC(=O)[C@H](C)/C=C(\C)[C@@H](O)[C@@H](OC)C(=O)[C@H](C)C[C@H](C)/C=C/C=C/C=C/1C [everolimus] + COc1ccc2c(c1)CCC1C2CCC2(C)C(NCCCCCCN3C(=O)C=CC3=O)CCC12 [U73122] (first compound 0.02 µM, partner dose 0.4 µM) | 59.6
CC(=O)O[C@@]12CO[C@@H]1C[C@H](O)[C@@]1(C)C(=O)[C@H](O)C3=C(C)[C@@H](OC(=O)[C@H](O)[C@@H](NC(=O)OC(C)(C)C)c4ccccc4)C[C@@](O)([C@@H](OC(=O)c4ccccc4)[C@H]21)C3(C)C [Docetaxel] + O=S(=O)(c1ccccc1)N(CC(F)(F)F)c1ccc(C(O)(C(F)(F)F)C(F)(F)F)cc1 [T0901317] (first compound 0.0001 µM, partner dose 1.4 µM) | 59.6
Nc1nc(F)nc2c1ncn2[C@@H]1O[C@H](CO)[C@@H](O)[C@@H]1O [fludarabine] + CCN(CC)CCCCNc1ncc2cc(-c3cc(OC)cc(OC)c3)c(NC(=O)NC(C)(C)C)nc2n1 [PD173074] (first compound 0.2 µM, partner dose 0.1 µM) | 4.82
CC(=O)c1c(C)c2cnc(Nc3ccc(N4CCNCC4)cn3)nc2n(C2CCCC2)c1=O [palbociclib] + N#Cc1c(O)c2c(-c3ccc(-c4ccccc4O)cc3)csc2[nH]c1=O [A769662] (first compound 0.04 µM, partner dose 2 µM) | 70.8
CC(=O)O[C@@]12CO[C@@H]1C[C@H](O)[C@@]1(C)C(=O)[C@H](O)C3=C(C)[C@@H](OC(=O)[C@H](O)[C@@H](NC(=O)OC(C)(C)C)c4ccccc4)C[C@@](O)([C@@H](OC(=O)c4ccccc4)[C@H]21)C3(C)C [Docetaxel] + Oc1cc(-c2nc(-c3ccccc3)[nH]c2-c2ccncc2)ccc1Cl [L779450] (first compound 0.0001 µM, partner dose 0.2 µM) | 42.1
CC(=O)c1c(C)c2cnc(Nc3ccc(N4CCNCC4)cn3)nc2n(C2CCCC2)c1=O [palbociclib] + O=C(O)C(=O)Nc1sc2c(c1C(=O)O)CCNC2 [TCS401] (first compound 0.04 µM, partner dose 1.66667 µM) | 57.3
Nc1ncn([C@H]2C[C@H](O)[C@@H](CO)O2)c(=O)n1 [decitabine] + COc1cc(N2CCC(N3CCN(C)CC3)CC2)ccc1Nc1ncc(Cl)c(Nc2ccccc2S(=O)(=O)C(C)C)n1 [NVP-TAE684] (first compound 0.1 µM, partner dose 0.08 µM) | 91.9
CC(=O)c1c(C)c2cnc(Nc3ccc(N4CCNCC4)cn3)nc2n(C2CCCC2)c1=O [palbociclib] + CCCCCCCCCCCC1=C(O)C(=O)C=C(O)C1=O [Embelin] (first compound 0.04 µM, partner dose 1.2 µM) | 83.8
CC(=O)O[C@@]12CO[C@@H]1C[C@H](O)[C@@]1(C)C(=O)[C@H](O)C3=C(C)[C@@H](OC(=O)[C@H](O)[C@@H](NC(=O)OC(C)(C)C)c4ccccc4)C[C@@](O)([C@@H](OC(=O)c4ccccc4)[C@H]21)C3(C)C [Docetaxel] + O=C1NC(=O)/C(=C/c2ccc(-c3ccc(F)cc3O)o2)S1 [AS252424] (first compound 0.0001 µM, partner dose 1 µM) | 62.5
CC(=O)O[C@@]12CO[C@@H]1C[C@H](O)[C@@]1(C)C(=O)[C@H](O)C3=C(C)[C@@H](OC(=O)[C@H](O)[C@@H](NC(=O)OC(C)(C)C)c4ccccc4)C[C@@](O)([C@@H](OC(=O)c4ccccc4)[C@H]21)C3(C)C [Docetaxel] + O=c1cc(-c2cccc3c2Sc2ccccc2S3)oc(N2CCOCC2)c1 [KU55933] (first compound 0.0001 µM, partner dose 1 µM) | 57.6
Nc1nc(F)nc2c1ncn2[C@@H]1O[C@H](CO)[C@@H](O)[C@@H]1O [fludarabine] + O=C(Nc1ccccc1)c1cc([N+](=O)[O-])ccc1Cl [GW9662] (first compound 0.2 µM, partner dose 2 µM) | 2.63
Nc1ncn([C@H]2C[C@H](O)[C@@H](CO)O2)c(=O)n1 [decitabine] + COc1ccc2c(c1)CCC1C2CCC2(C)C(NCCCCCCN3C(=O)C=CC3=O)CCC12 [U73122] (first compound 0.1 µM, partner dose 0.4 µM) | 86.8
Nc1ccn([C@@H]2O[C@H](CO)[C@@H](O)C2(F)F)c(=O)n1 [gemcitabine] + CCCCCCCCCCCC1=C(O)C(=O)C=C(O)C1=O [Embelin] (first compound 0.0004 µM, partner dose 1.2 µM) | 104
Nc1ccn([C@@H]2O[C@H](CO)[C@@H](O)C2(F)F)c(=O)n1 [gemcitabine] + COC(=O)c1sccc1S(=O)(=O)Nc1ccc(Nc2ccccc2)cc1OC [GSK0660] (first compound 0.0004 µM, partner dose 1 µM) | 110
